# From ChEMBL document CHEMBL1201862, “PubChem BioAssay data set” (2004)
#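 Interpolation was linear, between the two tested concentrations surrounding the appropriate level; five concentrations were tested over 48 hours in 96-well plates. GI50 is the concentration that inhibits growth by half.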 Activity calls are given as the source filed them. No stated cut-off is given here; in the data, active = GI50 up to about 1.1 µM and inactive = higher.
# System: NCI-H322M
# Test: inhibition of tumour cell growth, NCI panel, 48 h
row,Structure (SMILES),GI50
1,O=C(N/N=C/c1ccc([N+](=O)[O-])o1)c1ccc(C(=O)N/N=C/c2ccc([N+](=O)[O-])o2)cc1,inactive: 57.3 µM
2,CC12CCc3ccccc3C1=Nc1ccccc12 (stereo unspecified),inactive: 68.9 µM
3,CN(/N=C/c1ccc(C(=O)O)cc1)C1=NCCCCN1,inactive: > 100 µM
4,COC(=O)N/N=C(\C)c1c(O)cc(C)oc1=O,inactive: > 100 µM
5,O=C1/C(=C/c2ccc(Cl)cc2)CCC1CNc1ccc(Cl)cc1 (stereo unspecified),inactive: 16 µM
6,COc1ccc(C(=O)N(Cc2cccnc2)C(=S)N(Cc2cccnc2)C(=O)c2ccc(OC)cc2)cc1,inactive: > 100 µM
7,O=C(Cc1csc(-c2nc(CC(=O)NNc3ccccc3)cs2)n1)NNc1ccccc1,inactive: > 100 µM
8,CC1NC(=O)CC(c2ccccc2)N(N=O)C1c1ccccc1 (stereo unspecified),inactive: 68.4 µM
9,Cc1ccc(Sc2ccccc2[N+](=O)[O-])cc1,inactive: 44.8 µM
10,O=C(CCC(=O)C1Cc2ccccc2C1=O)Nc1cccc(C(F)(F)F)c1 (stereo unspecified),inactive: > 100 µM
11,COC(=O)[C@H]1C2CC[C@@H]3C45C[C@@H](c6ccoc6)O[C@@H]4O[C@@H](O2)C31CCC5C (stereo partly specified),inactive: > 100 µM
12,O=C(/C=C(\O)C(=O)O)/C=C(\O)c1ccccc1Cl,inactive: > 100 µM
13,COc1ccc(/N=N/c2c(-c3ccccc3)nn(C(=O)CC(=O)Nc3ccc(OC)cc3)c2-c2ccccc2)cc1,inactive: > 100 µM
14,COc1ccc2cc(C(=O)O)ccc2c1OC,inactive: > 100 µM
15,CCOC(=O)c1sc2nc(SC)nc3c2c1NCN3c1ccc2c(c1)OCO2,inactive: 40.1 µM
16,COc1ccc2c(=O)c3ccoc3[nH]c2c1,inactive: > 100 µM
17,COC(=O)C1C(O)CCC2CN3CCc4c([nH]c5cccc(OC)c45)C3CC21 (stereo unspecified),inactive: > 100 µM
18,Nc1ccc(S(=O)(=O)C23CC4CC(CC(C4)C2)C3)cc1,inactive: > 100 µM
19,CO/C=C(/C(=O)OC)c1ccccc1Oc1c(F)c(F)c(F)c(F)c1F,inactive: 31.3 µM
20,OC(NN=C1CCCC1)(C(F)(F)Cl)C(F)(F)Cl,inactive: > 10 µM
21,O=C(N/N=C/C=C/c1ccccc1)[C@H](O)[C@@H](O)C(=O)N/N=C/C=C/c1ccccc1,inactive: > 100 µM
22,COc1ccc(C)cc1Nc1nnc(-c2ccccc2N)s1,inactive: 55.8 µM
23,CC1(C)CC2(S(=O)(=O)c3ccccc3)ON1CC2S(=O)(=O)c1ccccc1 (stereo unspecified),inactive: > 100 µM

row,Structure (SMILES),GI50
1,NC(=O)C(=CN1C(=O)CC(=O)NC1=S)C(N)=O,inactive: > 100 µM
2,CCOC(=O)N1CCC(=O)C(CNC23CC4CC(CC(C4)C2)C3)C1 (stereo unspecified),inactive: > 100 µM
3,COC1=CC2(CC(OC)=C1OC)OC21COc2ccccc2C1=O (stereo unspecified),inactive: 52.7 µM
4,O=C1c2c(F)c(F)c(F)c(F)c2SC2=Nc3cccc4cccc(c34)N12,inactive: 14.1 µM
5,C/C(=N\Nc1ccccc1)C(CN(C)C)C(c1ccccc1)c1c(O)c2ccccc2oc1=O (stereo unspecified),inactive: > 100 µM
6,CC1(Sc2ccccc2)CN(Cc2ccccc2)C1=O (stereo unspecified),inactive: > 100 µM
7,O=C1C=C(NCCc2cc(Br)c(O)c(Br)c2)C(=O)c2[nH]cnc21,inactive: 26.4 µM
8,Cc1nc2c(=O)n(-c3ccccc3)c3ccccc3c2o1,inactive: > 100 µM
9,CCN(CC)Cc1sc2nc3ccccc3n2c1-c1ccc(OC)cc1,inactive: 35.2 µM
10,Cc1sc2nc3n(c(=O)c2c1C)N=CN(c1ccc(Cl)cc1)C3,inactive: > 100 µM
11,CN(C)c1ccc(/C=C2\C[C@H]3[C@@H]4CCc5cc(OCCN6CCCC6)ccc5[C@H]4CC[C@]3(C)[C@H]2O)cc1,inactive: 13.2 µM
12,N#Cc1c2c(c(Nc3ccc(Cl)cc3)n3c1nc1ccccc13)CCCC2,inactive: > 71.8 µM
13,N#Cc1ccccc1NC(=O)C(=O)c1c(O)c2ccccc2oc1=O,inactive: > 100 µM
14,CCCCCCCCCCCCCCCCOCC(Cl)COP(=O)(O)OP(=O)(O)OCC1OC(n2cnc3c(N)ncnc32)C(O)C1O (stereo unspecified),inactive: > 100 µM
15,Nc1cccc2cc(S(=O)(=O)Nc3ccc(C(=O)O)cc3)ccc12,inactive: > 100 µM
16,CC(=O)O[C@H]1C(=O)[C@@]2(C)[C@H]([C@H](OC(=O)c3ccccc3)[C@]3(O)C[C@H](OC(=O)[C@H](O)[C@@H](NC(=O)CC(C)(C)C)c4ccccc4)C(C)=C1C3(C)C)C1(OC(C)=O)CO[C@@H]1C[C@@H]2O (stereo partly specified),active: 0.0169 µM
17,C=C[C@]1(O[Si](C)(C)C)C[C@@]2(C(=O)OCC)C(O)C(=O)N3CCc4cc(OC)c(OC)cc4[C@]312 (stereo partly specified),inactive: > 100 µM
18,C[N+](C)([O-])CCCNc1ccnc2cccc([N+](=O)[O-])c12,inactive: 46.6 µM
19,CC(C)=CCC/C(C)=C/CC/C(C)=C/CSc1ccc(Cl)cc1C(=O)O,inactive: 18.1 µM
20,Nc1ncc(Cc2ccc3c(c2)OCO3)c(N)n1,inactive: > 100 µM
21,O=C1C=CC(=O)N1c1ccc(I)cc1,inactive: 19.1 µM
22,Cc1ccc(S(=O)(=O)NC(=O)Nc2nc[nH]n2)cc1,inactive: > 100 µM
23,COc1ccc2[nH]c(Cl)c(/C=C3/C(=O)N(c4ccccc4)c4ccccc43)c2c1,inactive: 19.9 µM
